About 14,000 (4.5%) of roughly 310,000 compounds showed an effect of 50% or more. The effect is printed as a negative number. This is one part of the list.
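Further: peak tail current of the secondary pulse compared with the same well before compound.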

human ether-à-go-go-related gene (hERG) potassium channel, sequence (Q12809 whole entry, looked up): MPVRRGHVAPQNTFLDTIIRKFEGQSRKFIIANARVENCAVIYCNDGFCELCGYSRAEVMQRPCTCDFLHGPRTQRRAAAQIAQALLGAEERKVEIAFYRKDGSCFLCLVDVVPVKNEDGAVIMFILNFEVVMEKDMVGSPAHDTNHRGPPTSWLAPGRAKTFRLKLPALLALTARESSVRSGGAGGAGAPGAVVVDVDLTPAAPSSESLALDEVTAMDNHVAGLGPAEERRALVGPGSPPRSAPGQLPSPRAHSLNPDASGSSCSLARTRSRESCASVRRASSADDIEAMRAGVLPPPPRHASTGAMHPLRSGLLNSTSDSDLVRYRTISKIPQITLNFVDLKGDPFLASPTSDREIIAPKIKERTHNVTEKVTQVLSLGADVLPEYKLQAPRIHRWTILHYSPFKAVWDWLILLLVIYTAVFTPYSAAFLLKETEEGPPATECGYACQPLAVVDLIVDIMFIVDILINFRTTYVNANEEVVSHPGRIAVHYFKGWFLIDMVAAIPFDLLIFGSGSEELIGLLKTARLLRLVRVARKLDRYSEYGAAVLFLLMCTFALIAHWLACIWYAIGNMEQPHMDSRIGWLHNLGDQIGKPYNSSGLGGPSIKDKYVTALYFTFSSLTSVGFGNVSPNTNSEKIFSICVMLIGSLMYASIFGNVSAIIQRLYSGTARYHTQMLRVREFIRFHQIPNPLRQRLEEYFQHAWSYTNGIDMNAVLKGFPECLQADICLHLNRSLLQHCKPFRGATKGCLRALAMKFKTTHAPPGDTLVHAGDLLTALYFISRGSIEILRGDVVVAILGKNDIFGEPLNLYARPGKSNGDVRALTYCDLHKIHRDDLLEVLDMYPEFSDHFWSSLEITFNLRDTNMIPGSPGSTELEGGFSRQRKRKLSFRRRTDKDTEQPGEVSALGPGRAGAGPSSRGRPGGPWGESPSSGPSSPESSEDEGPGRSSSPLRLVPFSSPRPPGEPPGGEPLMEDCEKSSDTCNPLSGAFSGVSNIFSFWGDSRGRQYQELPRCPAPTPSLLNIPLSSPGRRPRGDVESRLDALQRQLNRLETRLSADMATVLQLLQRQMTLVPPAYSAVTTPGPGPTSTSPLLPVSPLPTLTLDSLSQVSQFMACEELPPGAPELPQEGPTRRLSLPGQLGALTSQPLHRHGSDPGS

This experiment has as its target human ether-à-go-go-related gene (hERG) potassium channel (human, UniProt Q12809). Description: primary screen, population patch clamp on CHO cells stably expressing hERG.
For the molecule `COC(=O)c1ccc(-c2cc(C(=O)O)c3cc4c(cc3n2)OCCO4)cc1`, the “hERG current change (%, negative = inhibition) at 10uM” value was -0.776%. As to `COc1ccccc1N1CCN(S(=O)(=O)c2c(C)[nH]c(C)c2C(=O)N2CCCCC2)CC1`, the “hERG current change (%, negative = inhibition) at 10uM” value came to 12.9%. The result for `CCN(CC)S(=O)(=O)c1ccc(/C=C/C(=O)OCC#N)cc1` reads -12.4%. With `Cc1[nH]n(-c2ccccc2)c(=O)c1/C=N/N1C(=O)c2ccc3c4c(ccc(c24)C1=O)CC3`, the “hERG current change (%, negative = inhibition) at 10uM” value amounted to 1.03%.

For `CC(C)C(C(=O)Nc1nccs1)c1ccc(Cl)cc1` (stereo not drawn), the “hERG current change (%, negative = inhibition) at 10uM” value was determined as 12.7%.

Consider `CCN(c1ccc(NC(=O)COC(=O)CCc2nc3ccccc3n2-c2ccccc2)cc1)C(C)C`, for which the “hERG current change (%, negative = inhibition) at 10uM” value is listed as -0.499%. The result for `COc1cc2cc(C(=O)Nc3ccccc3)c(N)nc2cc1OC` reads -18.6%; that for `CCc1c(C)sc(NC(=O)OC)c1C(N)=O`, 12.7%; that for `COC(CNC(=O)C(=O)Nc1ccc2c(c1)N(S(=O)(=O)c1cccs1)CCC2)OC`, 2.86%. The result for `COC(=O)C1=C(C)N(CCCC(=O)O)C(=O)NC1c1ccc(Cl)cc1` (stereo not drawn) reads -12.1%; that for `OCCOCCOc1ccc(-c2nn[nH]n2)cc1`, 11.6%. As to `COc1ccc(C2c3[nH]c4ccccc4c3C[C@H]3C(=O)N(C4CCN(Cc5ccccc5)CC4)CC(=O)N23)cc1OC` (stereo partly drawn), the “hERG current change (%, negative = inhibition) at 10uM” value is -45.2%.

As for `O=C(Nc1ccc([N+](=O)[O-])cc1)c1cccc(S(=O)(=O)Nc2ccccn2)c1`, the “hERG current change (%, negative = inhibition) at 10uM” value was 1.99%.

On to `O=C(c1ccccc1)c1c[nH]c(C(=O)C(Cl)(Cl)Cl)c1`, for which the “hERG current change (%, negative = inhibition) at 10uM” value is 33.3%. `CC1CC1C(=O)OCC(=O)Nc1ccccc1Oc1ccccc1` (stereo not drawn): the “hERG current change (%, negative = inhibition) at 10uM” value was 13.9%. On to `Cc1cc(C)n(C(=O)/C(C#N)=N\Nc2ccccc2[N+](=O)[O-])n1`, for which the “hERG current change (%, negative = inhibition) at 10uM” value is recorded as 14.3%. Take `N#Cc1c2ccc(OCC(N)=O)cc2n2ccccc12`: the “hERG current change (%, negative = inhibition) at 10uM” value was 35.1%. `Nc1[nH][nH]c(=O)c1N=Nc1ccc2c(c1)OCO2`: the “hERG current change (%, negative = inhibition) at 10uM” value was found to be 21.8%. The result for `Cc1nc(NC(=O)c2c(-c3ccccc3Cl)noc2C)sc1C` reads -12.5%.

On to `COc1ccc(/C=C/c2nc(S(=O)(=O)c3ccccc3)c(N(C)C)o2)cc1`, for which the “hERG current change (%, negative = inhibition) at 10uM” value was determined as 1.65%. On to `COc1cc(C=O)ccc1OCC(=O)NC(C)(C)C`, for which the “hERG current change (%, negative = inhibition) at 10uM” value is 5.35%.

Consider `Cc1ccc(CCN2CC(C(=O)NCCCN3CCCCCC3)CC2=O)cc1` (stereo not drawn), for which the “hERG current change (%, negative = inhibition) at 10uM” value is given as 10.8%. For the molecule `COCC(=O)Nc1cc([N+](=O)[O-])ccc1OC`, the “hERG current change (%, negative = inhibition) at 10uM” value came out at 5.1%. On to `COc1ccc(OC)c(S(=O)(=O)N2CCN(CC(O)COc3ccccc3)CC2)c1` (stereo not drawn), for which the “hERG current change (%, negative = inhibition) at 10uM” value was -34.7%. In the case of `NC(=O)c1ccc(S(=O)(=O)N2CCSCC2)cc1`, the “hERG current change (%, negative = inhibition) at 10uM” value came to 14.8%.

`Cc1cccc2cc(C(c3nnnn3Cc3ccccc3)N3CCCc4ccccc43)c(=O)[nH]c12` (stereo not drawn): the “hERG current change (%, negative = inhibition) at 10uM” value was determined as 2.22%. Take `COc1ccc(C(=O)O/N=C(/C(N)=O)P(=O)(OC(C)C)OC(C)C)cc1`: the “hERG current change (%, negative = inhibition) at 10uM” value is given as -8.54%. For the molecule `Cc1ccc(CCNC(=O)CC(C)CC2=NS(=O)(=O)c3ccccc3N2)cc1` (stereo not drawn), the “hERG current change (%, negative = inhibition) at 10uM” value came to 10.4%. Consider `CC1(C)CC(=O)C=C(NCCN2CCNCC2)C1`, for which the “hERG current change (%, negative = inhibition) at 10uM” value is -2.18%. Take `CCCCC(=O)Nc1c(-c2ccc(OC)c(OC)c2)c(=O)c2ccccc2n1C`: the “hERG current change (%, negative = inhibition) at 10uM” value is recorded as 21.9%.

Regarding `COc1ccc(NC(=O)c2ccccc2CC[N+](=O)[O-])cc1`, the “hERG current change (%, negative = inhibition) at 10uM” value came out at 9.51%. Regarding `C=CCn1c(O)c(C(C)=NCCc2ccccc2)c(=O)[nH]c1=O`, the “hERG current change (%, negative = inhibition) at 10uM” value is -14.7%. With `CCCCCCCCCCS(=O)(=O)N/N=C/c1ccccc1OC`, the “hERG current change (%, negative = inhibition) at 10uM” value was -0.985%. As for `COc1cc(CNn2nnnc2N)ccc1OCc1c(Cl)cccc1Cl`, the “hERG current change (%, negative = inhibition) at 10uM” value was -1.22%.

With `Cc1cc(C)n(S(=O)(=O)c2ccc(Cl)c(Cl)c2Cl)n1`, the “hERG current change (%, negative = inhibition) at 10uM” value is -2.78%. Turning to `CCc1cccc(C)c1NC(=O)Cc1ccsc1`, the “hERG current change (%, negative = inhibition) at 10uM” value came to 4.64%. Consider `CC(C)C(=O)Nc1ccc(NC(=O)c2cccs2)cn1`, for which the “hERG current change (%, negative = inhibition) at 10uM” value is -2.8%. The result for `CCOC(=O)c1c(C)[nH]c(C(=O)COC(=O)c2ccccc2NC(=O)c2ccco2)c1C` reads 12.8%; that for `COc1ccc(Cl)cc1NC(=O)CN(C)C(=O)CCCNC(=O)c1ccc(Cl)cc1`, -55.4%. Take `O=C1O/C(=C/c2ccccc2)N=C1c1ccccc1`: the “hERG current change (%, negative = inhibition) at 10uM” value turned out to be 12.3%. Regarding `CC(C)(C)NC(=O)Cn1ccc(=N)c2ccccc21.Cl`, the “hERG current change (%, negative = inhibition) at 10uM” value is 4.84%.

Consider `CCOC(=O)c1cccc(NC(=O)CSc2nnc(-c3ccoc3C)n2CCOC)c1`, for which the “hERG current change (%, negative = inhibition) at 10uM” value is reported as -19.7%. Take `O=C(CCCCCNc1nc(=S)[nH]c2ccccc12)NCCc1c[nH]c2ccccc12`: the “hERG current change (%, negative = inhibition) at 10uM” value was determined as 5.94%.

With `O=C(O)C1C2C=CC(C2)C1C(=O)NCc1cccc(Cl)c1` (stereo not drawn), the “hERG current change (%, negative = inhibition) at 10uM” value was 21.9%. For the molecule `CCN(CC1COc2ccccc2O1)C(=O)CN1C(=O)NC(C)(c2ccccc2)C1=O` (stereo not drawn), the “hERG current change (%, negative = inhibition) at 10uM” value is -12.4%.

Turning to `O=C(NCCSc1ccc(Cl)cc1)c1ccco1`, the “hERG current change (%, negative = inhibition) at 10uM” value is reported as -21.4%. Take `N#CC1(Cc2ccc([N+](=O)[O-])cc2)c2ccccc2C=CN1C(=O)c1ccccc1` (stereo not drawn): the “hERG current change (%, negative = inhibition) at 10uM” value is given as -24.1%. With `Cc1ccc(-c2ccc(CCC(=O)O)n2NC(=O)c2ccco2)cc1`, the “hERG current change (%, negative = inhibition) at 10uM” value is -8.06%. Regarding `COc1ccc(OC)c(C(c2nnnn2Cc2ccccc2)N2CCC(C(N)=O)CC2)c1` (stereo not drawn), the “hERG current change (%, negative = inhibition) at 10uM” value is on record as -13.5%. Regarding `COc1ccc(CNC(=O)CNS(=O)(=O)c2ccc(Cl)cc2)cc1`, the “hERG current change (%, negative = inhibition) at 10uM” value is on record as -23.1%.

Turning to `Cn1cnnc1SCC(=O)c1ccco1`, the “hERG current change (%, negative = inhibition) at 10uM” value was found to be 9.46%. The result for `O=C(COc1cccc2c1CCN(Cc1ccc(Br)cc1)C2=O)NCc1ccco1` reads -70.6%; that for `CC(C)COC(=O)CCNc1n[nH]c(=O)[nH]c1=O`, 2.82%.

`Clc1ccccc1OCCn1cnc2ccccc21`: the “hERG current change (%, negative = inhibition) at 10uM” value is recorded as -10.6%.

For the molecule `O=C(Cc1ccccc1)Nc1ccc(N2CCOCC2)cc1`, the “hERG current change (%, negative = inhibition) at 10uM” value turned out to be 30.2%. The result for `Cc1ccc(-n2c(SCC3CNC(=O)O3)nnc2-c2ccccc2)cc1C` (stereo not drawn) reads -29%; that for `COc1ccccc1OC(=O)c1cc2ccccc2oc1=O`, 6.48%.

(Values after paper PMC4336329 (PLoS ONE, 2015).)
